In all, about 350,000 compounds went through this assay and about 9,900 (2.8%) were called active. Inconclusive results, whose numbers are uncertain, are shown with a selection of clear calls. Calls follow the shape of the dose curve; as a rule, active = well fitted activation curve with a large enough effect; inconclusive = small, poorly fitted or top-dose-only effect; inactive = no such curve, though single readings can be large or run the other way. No potency is given beside an inconclusive call; the fits are too rough.
Assay: A quantitative high throughput screen for small molecules that induce DNA re-replication in MCF 10a normal breast cells. Also: nearly all actives have a fitted effect of over 50% in size. As to activity, positive = re-replication: % of control where 0% means no effect.
Settings: MCF 10A DNA re-replication, Hoechst nuclear intensity, 48 h; activity, positive = re-replication: at 46.1 µM (top of the series)
Potency is read from the fitted curve at half-maximal effect; tags tell the direction and shape of the fitted curve.

| Structure (SMILES) | Potency | activity, positive = re-replication |
| --- | --- | --- |
| CC(C)(Oc1ccc(Cl)cc1)C(=O)N/N=C/c1cn[nH]c1-c1ccccc1 | inconclusive [activator, single point] | – |
| N/C(=N\OC(=O)CC(c1ccccc1)c1ccccc1)c1cccnc1 | inconclusive [activator, partial curve] | – |
| COc1ccccc1N(CC(=O)NC1CCCCC1)C(=O)CNC(=O)c1cccs1 | – | inactive: 5.51% |
| C1CN(CCN2CCOCC2)CCN1 | inconclusive [activator, single point] | – |
| Cc1ccc(C)c(SCC(=O)NC(=O)Nc2ccc3c(c2)OCCO3)c1 | – | inactive: 1.83% |
| CCCc1cc(C(=O)Nc2cccc3ccccc23)n(C)n1 | inconclusive [activator, single point] | – |
| Cc1c(C(=O)Nc2ccc(F)c(F)c2)oc2ccc(S(=O)(=O)N3CCCCC3)cc12 | inconclusive [activator, partial curve, poor fit] | – |
| CSCCCNC(=S)N1CCc2ccccc2C1 | – | inactive: 0.348% |
| CN(Cc1ccc(OC(F)F)cc1)C(=O)/C=C/c1ccc(S(=O)(=O)N2CCOCC2)cc1 | – | inactive: 11.3% |
| O=[N+]([O-])c1cc([N+](=O)[O-])c(Oc2cccc3c2CCCC3)cc1NN1CCCCC1 | inconclusive [activator, full curve, poor fit] | – |
| Cc1c(C(=O)N(C)Cc2nc3ccccc3c(=O)[nH]2)oc2ccccc12 | active: 10.3 µM | – |
| COc1ccc(NC(=O)c2ccc[n+]([O-])c2)cc1 | – | inactive: -0.117% |
| Clc1cccc2c1Sc1ccccc1CC2N1CCNCC1 (stereo unspecified) | inconclusive [activator, single point] | – |
| COc1ccc(OC)c(Nc2nc(NCc3ccco3)nc(N)c2[N+](=O)[O-])c1 | inconclusive [activator, single point] | – |
| O=C(C1=NN(c2ccccc2)C2C(=O)N(c3cccc(Cl)c3)C(=O)C12)c1ccccc1 (stereo unspecified) | inconclusive [activator, single point] | – |
| COc1ccc(CCNC(=O)c2ccc3c(c2)N(Cc2ccc(C)cc2)CCS3)cc1OC | inconclusive [activator, partial curve, poor fit] | – |
| COc1cc(/C=C2/CC/C(=C/c3ccc(O)c(OC)c3)C2=O)ccc1O | inconclusive [activator, full curve, poor fit] | – |
| CCOc1ccc(C(=O)N2CCCC2C(=O)O)cc1 (stereo unspecified) | inconclusive [activator, single point] | – |
| O=C(NC(=S)NCc1ccccc1)c1cccc(Cl)c1 | inconclusive [activator, single point] | – |
| CC(=C/c1ccco1)/C=N/NC(=O)CSc1nnc(SCc2ccc(C)cc2)s1 | inconclusive [activator, partial curve, poor fit] | – |
| CC(=O)c1cccc(NC(=O)CN(c2ccc(C)cc2)S(=O)(=O)c2cccc3nonc23)c1 | inconclusive [activator, partial curve, poor fit] | – |
| COc1ccc(C(=O)Nc2cc(OC)c(Cl)cc2OC)cc1 | – | inactive: 3.41% |
| S=c1[nH]nc(-c2ccc(Br)cc2)n1-c1ccc(Br)cc1 | – | inactive: 0.0374% |
| COCCN1C=C(C(=O)OC)C(c2cc3c(cc2Br)OCO3)C(C(=O)OC)=C1 | – | inactive: -11.4% |

| Structure (SMILES) | Potency | activity, positive = re-replication |
| --- | --- | --- |
| CC(=O)Nc1ccc(S(=O)(=O)N2CCCC(C(=O)O)C2)cc1 (stereo unspecified) | inconclusive [activator, partial curve, poor fit] | – |
| CCOc1ccccc1CNC(=O)Cn1ccc2cc(S(=O)(=O)N3CCC(C)CC3)ccc21 | inconclusive [activator, full curve, poor fit] | – |
| CCOC(=O)c1c(-c2ccccc2)oc2ccc(OCC(O)CN(C)C)cc12 (stereo unspecified) | – | inactive: 5.36% |
| CN(CCc1ccccc1)C(=O)c1ccc(NC(=O)Cc2ccc(NC(=O)C3CCCN(S(=O)(=O)c4cccc([N+](=O)[O-])c4)C3)cc2)cc1 (stereo unspecified) | – | inactive: 11% |
| CCc1cc(=O)oc2c3c(cc(OCC(=O)Nc4cccnc4)c12)OC(C)(C)CC3 | inconclusive [activator, full curve] | – |
| C/C(=N\Nc1cccc([N+](=O)[O-])c1)c1cc(F)ccc1O | inconclusive [activator, single point] | – |
| O=[N+]([O-])c1ccc(Cl)c(CN2CCN(c3ncccn3)CC2)c1 | – | inactive: 0.877% |
| CN(C)CC1CCCCC1C1(O)c2ccccc2CSc2sccc21 (stereo unspecified) | – | inactive: -0.429% |
| Cc1c(Cl)cccc1NC(=O)Nc1c(C)n(C)n(-c2ccccc2)c1=O | – | inactive: -26.6% |
| C=CCC[C@H](Cc1ccc(F)cc1)C(=O)OC[C@@H](Cc1c[nH]c2ccccc12)NC(=O)[C@H](CC=C)CC(=O)N(CCO)Cc1ccccc1 | active: 18.4 µM | – |
| N=c1c(C(=O)NC2CCCC2)cc2c(=O)n3ccccc3nc2n1C1CCCCC1 | active: 2.91 µM | – |
| CC(C)CC1CCCCC1OC(=O)C[N+]1(C)CCCCC1 (stereo unspecified) | inconclusive [activator, single point] | – |
| COc1cc(C(=O)O)c([N+](=O)[O-])c(OC)c1OC | – | inactive: 2.04% |
| O=C(CCCn1c(=S)[nH]c2cc3c(cc2c1=O)OCO3)N1CCN(c2ccccn2)CC1 | – | inactive: 7.29% |
| Cc1cccc(NC(=S)NC(=O)c2ccc(-c3ccccc3)cc2)n1 | – | inactive: 3.85% |
| COCCn1c(N)c(N(Cc2ccccc2)C(=O)c2cc3ccccc3o2)c(=O)[nH]c1=O | inconclusive [activator, partial curve, poor fit] | – |
| N#CC1=C(N)Oc2c(sc3ccccc23)C1c1ccco1 (stereo unspecified) | inconclusive [activator, single point] | – |
| C=CCn1c(NC(C)c2cc(Cl)ccc2O)nc2ccccc21 (stereo unspecified) | inconclusive [activator, partial curve, poor fit] | – |
| O=C(O)C1=C[C@@H](C2CC2)C[C@@H](OCCCCO)O1 | – | inactive: 9.68% |
| CCc1ccccc1NC(=O)COc1ccc2oc(-c3ccc(OC)cc3)cc(=O)c2c1 | – | inactive: -2.67% |
| O=C(C1=C[C@H](c2csc3ccccc23)C[C@H](OCc2ccc(CO)cc2)O1)N1CCCCCCC1 | active: 23.1 µM | – |
| COc1ccc(CC(=O)Nc2cc(S(=O)(=O)N3CCOCC3)ccc2N2CCOCC2)cc1 | inconclusive [activator, single point] | – |
| CC(=O)C1C(=O)C=C(c2cccs2)CC1c1ccccc1 (stereo unspecified) | inconclusive [activator, single point] | – |
| CCn1cc(/C=N/NC(=O)c2cc3c(ccc4ccccc43)o2)c2ccccc21 | inconclusive [activator, full curve, poor fit] | – |

| Structure (SMILES) | Potency | activity, positive = re-replication |
| --- | --- | --- |
| Cc1cc(C(C)(C)C)cc(C)c1CCNC(=O)c1c(C)noc1C | inconclusive [activator, partial curve, poor fit] | – |
| Oc1cccc(/C=C/c2ccc3cccc(O)c3n2)c1 | inconclusive [activator, single point] | – |
| CCOC(=O)N1CCN(C(=O)COC(=O)Cc2ccc(Cl)cc2)CC1 | inconclusive [activator, single point] | – |
| COc1cc(C(=O)Nc2cccc3c2CCCC3)cc(OC)c1OC | – | inactive: -11.7% |
| Cc1cccc2sc(NNC(=O)C3=COCCO3)nc12 | – | inactive: 6.37% [at 9.22 µM] |
| O=C(NC(=S)Nc1cccc(NC(=S)NC(=O)c2ccco2)n1)c1ccco1 | – | inactive: -38.8% |
| CC1CCCCN1C(=O)COC(=O)C1CCN(S(=O)(=O)c2ccc3c(c2)OCCO3)CC1 (stereo unspecified) | – | inactive: 11.7% |
| CC(=O)N(C)c1ccc(N=Nc2c(C)[nH]n(-c3ccccc3)c2=O)cc1 | – | inactive: -8.02% |
| Cc1cc(C)cc(NC(=S)NCCSc2ccc(Cl)cc2)c1 | active: 20.6 µM | – |
| O=C(Nc1cccc(Cl)c1)Nc1nccs1 | – | inactive: 8.9% |
| Cc1cc(C)n(-c2ccc(C(=O)NCc3ccc(F)cc3)cc2)n1 | inconclusive [activator, single point] | – |
| O=C(c1cc2sccc2n1Cc1ccccc1)N1CCc2ccccc21 | – | inactive: -6.99% |
| Cc1cc(=O)n2nc(N3CCC(C(=O)Nc4cccc(Cl)c4C)CC3)sc2n1 | – | inactive: -1.99% |
| CCN(c1ccccc1)S(=O)(=O)c1ccc(Oc2ccccc2)c(N)c1 | inconclusive [activator, partial curve, poor fit] | – |
| CN(c1nc2ccccc2[nH]c1=O)C1CCCCC1 | inconclusive [activator, partial curve, poor fit] | – |
| COc1ccc(N2CCN(C(=O)CSc3ncnc4c3cnn4-c3ccc(OC)cc3)CC2)cc1 | inconclusive [activator, single point] | – |
| CC1(N2CCOCC2)C(=O)c2ccccc2C1=O | inconclusive [activator, single point] | – |
| Cc1ccc(N2C(=O)CC(N(O)C3CC(=O)N(c4ccc(C)cc4)C3=O)C2=O)cc1 (stereo unspecified) | – | inactive: 4.06% |
| CN(C)C(=O)c1nnsc1Sc1ccc(Cl)cc1 | inconclusive [activator, partial curve, poor fit] | – |
| COc1ccc(N(CC(=O)NCCSc2ccccc2)S(=O)(=O)c2ccccc2)c(OC)c1 | inconclusive [activator, partial curve, poor fit] | – |
| O=C(c1cc(COc2cccc(C(F)(F)F)c2)on1)N1C[C@H]2CC[C@H]1C2 | – | inactive: 10.1% |
| Cc1nc(NC(=O)CN2CCOCC2)sc1C(=O)N(C)C | inconclusive [activator, partial curve, poor fit] | – |
| C/C=C/c1ccc(OCCCCN2CCC(C)CC2)c(OC)c1 | inconclusive [activator, partial curve, poor fit] | – |

From PubChem BioAssay AID624296 (National Center for Advancing Translational Sciences (NCATS), 2012)
